# Counter-ions that a name gives are not always drawn. The list shows a part of the results. Single values are uncertain, as repeats are few or missing.
# Tested on: HCT116-GFP
# Experiment: HCT116-GFP viability (GFP intensity) relative to untreated control, monoculture; higher = less cancer cell killing
# Conditions: culture: HCT116-GFP monoculture; 10 µM; 72 h
# 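Further: viability estimated indirectly by image-based GFP quantification with live-cell imaging of the constitutively GFP-expressing human colorectal cancer line, no immune cells added.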
row,SMILES,HCT116-GFP viability
1,CC(=O)OC[C@H]1O[C@@H]([S-])[C@H](OC(C)=O)[C@@H](OC(C)=O)[C@@H]1OC(C)=O.CCP(CC)CC.[Au+] [Auranofin],1.37%
2,CCC1(c2ccccc2)C(=O)NCNC1=O [Primidone],96%
3,O=C1CC[C@@H](C(=O)N2CSC[C@H]2C(=O)O)N1 [Pidotimod],102%
4,Oc1c(Cl)cc(Cl)c2cccnc12 [Chloroxine],27.2%
5,c1ccc(-c2ccc(C(c3ccccc3)n3ccnc3)cc2)cc1 (stereo unspecified) [Bifonazole],80%
6,CN(C)CCC(c1ccc(Br)cc1)c1ccccn1 (stereo unspecified) [Brompheniramine maleate],103%
7,CN1CCN(CC(=O)N2c3ccccc3C(=O)Nc3cccnc32)CC1 [Pirenzepine dihydrochloride],96.8%
8,COC(=O)Nc1nc2cc(Sc3ccccc3)ccc2[nH]1 [Fenbendazole],14%
9,CN(CCCCCCCCCCN(C)C(=O)Oc1cccc([N+](C)(C)C)c1)C(=O)Oc1cccc([N+](C)(C)C)c1 [Demecarium bromide],79.6%
10,CC(=O)N(CC(O)CO)c1c(I)c(C(=O)NCC(O)CO)c(I)c(C(=O)NCC(O)CO)c1I (stereo unspecified) [Iohexol],101%
11,Cn1c(=O)c2c(ncn2CC2OCCO2)n(C)c1=O [Doxofylline],95.1%
12,Cc1cc(O)c(C(=O)N[C@@H](C(=O)N[C@@H]2C(=O)N3C(C(=O)O)=C(CSc4nnnn4C)CS[C@H]23)c2ccc(O)cc2)cn1 [Cefpiramide],97.5%
13,CCCNC(=O)NS(=O)(=O)c1ccc(Cl)cc1 [Chlorpropamide],93.3%
14,CCN(CC)C(C)CN1c2ccccc2Sc2ccccc21 (stereo unspecified) [Ethopropazine hydrochloride],88.3%
15,CC(=O)O[C@]1(C(C)=O)CC[C@H]2[C@@H]3C=C(Cl)C4=CC(=O)CC[C@]4(C)[C@H]3CC[C@@]21C [Chlormadinone acetate],85.3%
16,Clc1cccc(Cl)c1NC1=NCCN1 [Clonidine hydrochloride],98.3%
17,O=C1[C@H]2CCCC[C@H]2C(=O)N1CCCCN1CCN(c2nsc3ccccc23)CC1 [Perospirone],96.8%
18,CO[C@H]1/C=C/O[C@@]2(C)Oc3c(C)c(O)c4c(O)c(c5c(nc6cc(C)ccn65)c4c3C2=O)NC(=O)/C(C)=C\C=C\[C@H](C)[C@H](O)[C@@H](C)[C@@H](O)[C@@H](C)[C@H](OC(C)=O)[C@@H]1C [Rifaximin],60.4%
19,Nc1nc2c(ncn2COC(CO)CO)c(=O)[nH]1 [Ganciclovir],96.4%
20,CN(C)C(=N)NC(=N)N [Metformin hydrochloride],98.2%
21,NCCCCCC(=O)O [Aminocaproic acid],124%
22,CNCCc1ccccn1 [Betahistine mesylate],96.9%
23,CC=CC(=O)N(CC)c1ccccc1C [Crotamiton],104%
24,O=C(c1ccc(F)cc1)C1CCN(CCn2c(=O)[nH]c3ccccc3c2=O)CC1 [Ketanserin tartrate hydrate],103%
25,CCN(CC)C(=O)c1ccc(O)c(OC)c1 [Ethamivan],89.2%
26,Cc1[nH]cnc1CN1CCc2c(c3ccccc3n2C)C1=O [Alosetron hydrochloride],29.8%

row,SMILES,HCT116-GFP viability
1,CCCOc1ccc2[nH]c(NC(=O)OC)nc2c1 [Oxibendazol],12.5%
2,CN(CCCN1c2ccccc2CCc2ccccc21)CC(=O)c1ccc(Cl)cc1 [Lofepramine],99%
3,CN(C)CCOC(c1ccccc1)c1ccccc1.Cn1c(=O)c2[nH]c(Cl)nc2n(C)c1=O [Dimenhydrinate],98.5%
4,O=C1NCC2(CCN(CCc3ccccc3)CC2)O1 [Fenspiride hydrochloride],105%
5,Clc1ccc2c(c1)CCc1cccnc1C2=C1CCNCC1 [Desloratadine],49.6%
6,CCCCCCNC(=O)n1cc(F)c(=O)[nH]c1=O [Carmofur],37.6%
7,CCCOc1ccccc1-c1nc2[nH]nnc2c(=O)[nH]1 [Zaprinast],93.9%
8,COc1ccc(Cl)cc1C(=O)NCCc1ccc(S(=O)(=O)NC(=O)NC2CCCCC2)cc1 [Glibenclamide],90.2%
9,Nc1nc(=O)n([C@@H]2CS[C@H](CO)O2)cc1F [(-)-Emtricitabine],91.2%
10,CC#C[C@]1(O)CC[C@H]2[C@@H]3CCC4=CC(=O)CCC4=C3[C@@H](c3ccc(N(C)C)cc3)C[C@@]21C [Mifepristone],80.9%
11,CC(C(O)c1ccc(O)cc1)N1CCC(Cc2ccccc2)CC1 (stereo unspecified) [Ifenprodil tartrate],104%
12,CN1CCN2c3ncccc3Cc3ccccc3C2C1 (stereo unspecified) [Mirtazapine],98.6%
13,CC(C)[C@H](N)C(=O)OCCOCn1cnc2c(=O)nc(N)[nH]c21 [Valacyclovir hydrochloride],109%
14,CC1(C)O[C@@H]2C[C@H]3[C@@H]4C[C@H](F)C5=CC(=O)C=C[C@]5(C)[C@@]4(F)[C@@H](O)C[C@]3(C)[C@]2(C(=O)CO)O1 [Fluocinolone acetonide],121%
15,COc1cc(NS(=O)(=O)c2ccc(N)cc2)ncn1 [Sulfamonomethoxine],92.9%
16,Cc1cc(C)nc(NS(=O)(=O)c2ccc(N)cc2)n1 [Sulfamethazine sodium salt],110%
17,CN(C(=O)CN(CCO)CC(=O)N(C)C(C)(C)Cc1ccccc1)C(C)(C)Cc1ccccc1 [Oxethazaine],60.9%
18,COC(=O)N/N=C/c1c[n+]([O-])c2ccccc2[n+]1[O-] [Carbadox],92.3%
19,CCOC(=O)/C=C(C)/C=C/C=C(C)/C=C/c1c(C)cc(OC)c(C)c1C [Etretinate],84.7%
20,Cc1c(N)c(=O)n(-c2ccccc2)n1C [Ampyrone],94.8%
21,NC[C@H]1O[C@H](O[C@H]2[C@H](O)[C@@H](O[C@H]3O[C@H](CO)[C@@H](O)[C@H](N)[C@H]3O)[C@H](N)C[C@@H]2N)[C@H](N)C[C@@H]1O [Tobramycin],64.5%
22,C=CCOc1ccccc1OCC(O)CNC(C)C (stereo unspecified) [Oxprenolol hydrochloride],95.3%
23,O=P(O)(O)C(O)(Cn1ccnc1)P(=O)(O)O [Zoledronic acid hydrate],119%
24,Cc1cc(C(C)(C)C)cc(C)c1CC1=NCCN1 [Xylometazoline hydrochloride],98.6%
25,CCN(CC)C(=O)C1(c2ccccc2)CC1CN (stereo unspecified) [Milnacipran hydrochloride],91.9%
26,CCN(CCCCOC(=O)c1ccc(OC)c(OC)c1)C(C)Cc1ccc(OC)cc1 (stereo unspecified) [Mebeverine hydrochloride],97.1%

row,SMILES,HCT116-GFP viability
1,CCN(CC)CCOCCOC(=O)C1(c2ccccc2)CCCC1 [Carbetapentane citrate],94.9%
2,N[C@H]1CONC1=O [(S)-(-)-Cycloserine],88.6%
3,CCCCC1C(=O)N(c2ccccc2)N(c2ccc(O)cc2)C1=O (stereo unspecified) [Oxyphenbutazone],25.9%
4,CCN(CC)C(=O)Nc1ccc(OCC(O)CNC(C)(C)C)c(C(C)=O)c1 (stereo unspecified) [Celiprolol hydrochloride],99.1%
5,COc1cc2nc(N3CCN(C(=O)C4COc5ccccc5O4)CC3)nc(N)c2cc1OC (stereo unspecified) [Doxazosin mesylate],70%
6,CCOC1O[C@H]([C@@H](COCc2ccccc2)OCc2ccccc2)[C@H](OCc2ccccc2)[C@H]1O (stereo partly specified) [Tribenoside],80.9%
7,CNCC(O)c1ccc(O)c(O)c1 (stereo unspecified) [Racepinephrine hydrochloride],66.2%
8,CCN(CC)CCNC(=O)c1ccc(N)cc1 [Procainamide hydrochloride],99.9%
9,CC(=O)Nc1c(I)c(C(=O)N[C@H]2C(O)O[C@H](CO)[C@@H](O)[C@@H]2O)c(I)c(N(C)C(C)=O)c1I (stereo partly specified) [Metrizamide],108%
10,CC[C@H]1OC(=O)[C@H](C)[C@@H](O[C@H]2C[C@@](C)(OC)[C@@H](O)[C@H](C)O2)[C@H](C)[C@@H](O[C@@H]2O[C@H](C)C[C@H](N(C)C)[C@H]2O)[C@](C)(O)C[C@@H](C)CN(C)[C@H](C)[C@@H](O)[C@]1(C)O [Azithromycin],97.3%
11,C[C@@H]1CCC[C@H](C)N1NC(=O)c1ccc(Cl)c(S(N)(=O)=O)c1 [Clopamide],94.5%
12,CN[C@H]1CC[C@@H](c2ccc(Cl)c(Cl)c2)c2ccccc21 [Sertraline],43.6%
13,CC(CNC1CCCCC1)OC(=O)c1ccccc1 (stereo unspecified) [Hexylcaine hydrochloride],98.6%
14,Nc1ccc(S(=O)(=O)Nc2nccs2)cc1 [Sulfathiazole],107%
15,Cc1ccc(-c2cc(C(F)(F)F)nn2-c2ccc(S(N)(=O)=O)cc2)cc1 [Celecoxib],69.2%
16,C[C@]12CC[C@@H]3c4ccc(O)cc4C[C@@H](CCCCCCCCC[S+]([O-])CCCC(F)(F)C(F)(F)F)[C@H]3[C@@H]1CC[C@@H]2O (stereo partly specified) [Fulvestrant],71.9%
17,CO/N=C(\C(=O)N[C@@H]1C(=O)N2C(C(=O)O)=C(COC(C)=O)CS[C@H]12)c1csc(N)n1 [Cefotaxime sodium salt],98.1%
18,CCCCOc1cc(C(=O)OCCN(CC)CC)ccc1N [Benoxinate hydrochloride],93.8%
19,Cc1cc2cc3c(C)cc(=O)oc3c(C)c2o1 [Trioxsalen],89.8%
20,CC(=O)Nc1nnc(S(N)(=O)=O)s1 [Acetazolamide],115%
21,CC(C)Oc1ccc2c(=O)c(-c3ccccc3)coc2c1 [Ipriflavone],96.6%
22,Clc1ccc2nsnc2c1NC1=NCCN1 [Tizanidine hydrochloride],107%
23,NNC(=O)c1ccncc1 [Isoniazid],92.2%
24,CC1(C)O[C@@H]2C[C@H]3[C@@H]4C[C@H](F)C5=CC(=O)CC[C@]5(C)[C@H]4[C@@H](O)C[C@]3(C)[C@]2(C(=O)CO)O1 [Flurandrenolide],100%

# — the supplement of paper PMC9938546
